Binding signal data for 31 molecules are collected here from paper PMC9911399, “Two distinct binding modes provide the RNA-binding protein RbFox with extraordinary sequence specificity”.

Substitutions are numbered along the chain they refer to; changes in the protein carry UniProt numbers. The list shows a part of the results.

Sequences and labels used below:
T1: RBFOX1 RRM (Homo sapiens, UniProt Q9NWB1 109-208)
T1 sequence: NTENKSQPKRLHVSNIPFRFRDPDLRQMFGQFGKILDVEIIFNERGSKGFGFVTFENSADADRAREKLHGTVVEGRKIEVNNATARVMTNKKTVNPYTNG

B1: CGGCUCC (DNA:RNA)
RNA: GGGAGACCGGAAUUCAGAUUGUCCCGGCUCCUUAAAUCCCGUCGUAGCCACCA
DNA 1: CAATCTGAATTCCGGTCTCCC
DNA 2: TGGTGGCTACGACGGGATT
B2: AAGAUUA (DNA:RNA)
RNA: B1 RNA with C25A, G26A, C28A, C30U, C31A
DNA 1: CAATCTGAATTCCGGTCTCCC
DNA 2: TGGTGGCTACGACGGGATT
B3: CAUCAUG (DNA:RNA)
RNA: B1 RNA with G26A, G27U, U29A, C30U, C31G
DNA 1: CAATCTGAATTCCGGTCTCCC
DNA 2: TGGTGGCTACGACGGGATT
B4: CUGCUCC (DNA:RNA)
RNA: B1 RNA with G26U
DNA 1: CAATCTGAATTCCGGTCTCCC
DNA 2: TGGTGGCTACGACGGGATT
B5: CGAUCAA (DNA:RNA)
RNA: B1 RNA with G27A, C28U, U29C, C30A, C31A
DNA 1: CAATCTGAATTCCGGTCTCCC
DNA 2: TGGTGGCTACGACGGGATT
B6: GCCGGCG (DNA:RNA)
RNA: B1 RNA with C25G, G26C, G27C, C28G, U29G, C31G
DNA 1: CAATCTGAATTCCGGTCTCCC
DNA 2: TGGTGGCTACGACGGGATT
B7: CGGACCG (DNA:RNA)
RNA: B1 RNA with C28A, U29C, C31G
DNA 1: CAATCTGAATTCCGGTCTCCC
DNA 2: TGGTGGCTACGACGGGATT
B8: GCGAGAG (DNA:RNA)
RNA: B1 RNA with C25G, G26C, C28A, U29G, C30A, C31G
DNA 1: CAATCTGAATTCCGGTCTCCC
DNA 2: TGGTGGCTACGACGGGATT
B9: UCUCUAA (DNA:RNA)
RNA: B1 RNA with C25U, G26C, G27U, C30A, C31A
DNA 1: CAATCTGAATTCCGGTCTCCC
DNA 2: TGGTGGCTACGACGGGATT
B10: GGUUGGA (DNA:RNA)
RNA: B1 RNA with C25G, G27U, C28U, U29G, C30G, C31A
DNA 1: CAATCTGAATTCCGGTCTCCC
DNA 2: TGGTGGCTACGACGGGATT
B11: CCAAAAC (DNA:RNA)
RNA: B1 RNA with G26C, G27A, C28A, U29A, C30A
DNA 1: CAATCTGAATTCCGGTCTCCC
DNA 2: TGGTGGCTACGACGGGATT
B12: UGCUGCA (DNA:RNA)
RNA: B1 RNA with C25U, G27C, C28U, U29G, C31A
DNA 1: CAATCTGAATTCCGGTCTCCC
DNA 2: TGGTGGCTACGACGGGATT
B13: AGCAUAU (DNA:RNA)
RNA: B1 RNA with C25A, G27C, C28A, C30A, C31U
DNA 1: CAATCTGAATTCCGGTCTCCC
DNA 2: TGGTGGCTACGACGGGATT
B14: CGUGCUC (DNA:RNA)
RNA: B1 RNA with G27U, C28G, U29C, C30U
DNA 1: CAATCTGAATTCCGGTCTCCC
DNA 2: TGGTGGCTACGACGGGATT
B15: ACGUCGC (DNA:RNA)
RNA: B1 RNA with C25A, G26C, C28U, U29C, C30G
DNA 1: CAATCTGAATTCCGGTCTCCC
DNA 2: TGGTGGCTACGACGGGATT
B16: AGAGAGG (DNA:RNA)
RNA: B1 RNA with C25A, G27A, C28G, U29A, C30G, C31G
DNA 1: CAATCTGAATTCCGGTCTCCC
DNA 2: TGGTGGCTACGACGGGATT
B17: GAAAGAC (DNA:RNA)
RNA: B1 RNA with C25G, G26A, G27A, C28A, U29G, C30A
DNA 1: CAATCTGAATTCCGGTCTCCC
DNA 2: TGGTGGCTACGACGGGATT
B18: UGACGAC (DNA:RNA)
RNA: B1 RNA with C25U, G27A, U29G, C30A
DNA 1: CAATCTGAATTCCGGTCTCCC
DNA 2: TGGTGGCTACGACGGGATT
B19: GUGCCUG (DNA:RNA)
RNA: B1 RNA with C25G, G26U, U29C, C30U, C31G
DNA 1: CAATCTGAATTCCGGTCTCCC
DNA 2: TGGTGGCTACGACGGGATT
B20: CCGUGCG (DNA:RNA)
RNA: B1 RNA with G26C, C28U, U29G, C31G
DNA 1: CAATCTGAATTCCGGTCTCCC
DNA 2: TGGTGGCTACGACGGGATT
B21: UCUACUG (DNA:RNA)
RNA: GGGAGACCGGAAUUCAGAUUGUCCUCUACUGUUAAAUCCCGUCGUAGCCACCA
DNA 1: CAATCTGAATTCCGGTCTCCC
DNA 2: TGGTGGCTACGACGGGATT
B22: GACUAGC (DNA:RNA)
RNA: B1 RNA with C25G, G26A, G27C, C28U, U29A, C30G
DNA 1: CAATCTGAATTCCGGTCTCCC
DNA 2: TGGTGGCTACGACGGGATT
B23: GAUUUUA (DNA:RNA)
RNA: B21 RNA with U25G, C26A, A28U, C29U, G31A
DNA 1: CAATCTGAATTCCGGTCTCCC
DNA 2: TGGTGGCTACGACGGGATT
B24: ACCGUGA (DNA:RNA)
RNA: B1 RNA with C25A, G26C, G27C, C28G, C30G, C31A
DNA 1: CAATCTGAATTCCGGTCTCCC
DNA 2: TGGTGGCTACGACGGGATT
B25: UGGUAGU (DNA:RNA)
RNA: B1 RNA with C25U, C28U, U29A, C30G, C31U
DNA 1: CAATCTGAATTCCGGTCTCCC
DNA 2: TGGTGGCTACGACGGGATT
B26: AUAGCCA (DNA:RNA)
RNA: B1 RNA with C25A, G26U, G27A, C28G, U29C, C31A
DNA 1: CAATCTGAATTCCGGTCTCCC
DNA 2: TGGTGGCTACGACGGGATT
B27: UCAUACC (DNA:RNA)
RNA: B1 RNA with C25U, G26C, G27A, C28U, U29A
DNA 1: CAATCTGAATTCCGGTCTCCC
DNA 2: TGGTGGCTACGACGGGATT
B28: CAAACGU (DNA:RNA)
RNA: B21 RNA with U25C, C26A, U27A, U30G, G31U
DNA 1: CAATCTGAATTCCGGTCTCCC
DNA 2: TGGTGGCTACGACGGGATT
B29: AUGACUU (DNA:RNA)
RNA: B21 RNA with U25A, C26U, U27G, G31U
DNA 1: CAATCTGAATTCCGGTCTCCC
DNA 2: TGGTGGCTACGACGGGATT
B30: GGCUAUU (DNA:RNA)
RNA: B1 RNA with C25G, G27C, C28U, U29A, C30U, C31U
DNA 1: CAATCTGAATTCCGGTCTCCC
DNA 2: TGGTGGCTACGACGGGATT
B31: UUGCCCU (DNA:RNA)
RNA: B1 RNA with C25U, G26U, U29C, C31U
DNA 1: CAATCTGAATTCCGGTCTCCC
DNA 2: TGGTGGCTACGACGGGATT

The test deals with T1, RBFOX1 RRM. As to the kind of experiment: EMSA; HiTS-Eq, 1 nM pool, 10 min; buffer printed only for the single-RNA assays: 10 mM Tris pH 7.5, 150 mM NaCl, 3.4 mM EDTA, 0.001% NP-40, 30 C. Particulars: tags: His6 N-terminal (pET28a); label: 5' 32P. The method in brief:
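Purified wild-type or mutant RbFox RRM at increasing concentrations was equilibrated with 1 nM of 5′-radiolabelled RNA carrying 7 randomized nucleotides for 10 min in 50 µL. Unbound RNA was separated by 8% native PAGE and sequenced. Relative association constants came from read-count changes of each RNA species compared with the control reaction, normalised to the cognate motif.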
In general terms: In EMSA bound probe runs differently from free probe, usually more slowly.
For the molecule B1, the binding signal is 0.0203 KA relative to UGCAUGU.

Turning to B2, the binding signal is 0.00246 KA relative to UGCAUGU.

As for B3, the binding signal was 0.00476 KA relative to UGCAUGU.

Regarding B4, the binding signal was 0.0136 KA relative to UGCAUGU.

Turning to B5, the binding signal was 0.00365 KA relative to UGCAUGU.

Turning to B6, the binding signal was 0.0178 KA relative to UGCAUGU.

For B7, the binding signal is 0.0268 KA relative to UGCAUGU.

Regarding B8, the binding signal was 0.0145 KA relative to UGCAUGU.

Take B9: the binding signal is 0.00421 KA relative to UGCAUGU.

For the molecule B10, the binding signal was 0.00246 KA relative to UGCAUGU.

Take B11: the binding signal was 0.00112 KA relative to UGCAUGU.

Take B12: the binding signal was 0.0343 KA relative to UGCAUGU.

As to B13, the binding signal is 0.00485 KA relative to UGCAUGU.

With B14, the binding signal was 0.0133 KA relative to UGCAUGU.

On to B15, for which the binding signal is 0.00978 KA relative to UGCAUGU.

As for B16, the binding signal is 0.0144 KA relative to UGCAUGU.

With B17, the binding signal was 0.00724 KA relative to UGCAUGU.

For B18, the binding signal was 0.0138 KA relative to UGCAUGU.

As for B19, the binding signal is 0.0397 KA relative to UGCAUGU.

B20: the binding signal was 0.0124 KA relative to UGCAUGU.

In the case of B21, the binding signal was 0.0124 KA relative to UGCAUGU.

Consider B22, for which the binding signal is 0.01 KA relative to UGCAUGU.

As for B23, the binding signal is 0.00768 KA relative to UGCAUGU.

On to B24, for which the binding signal was 0.0086 KA relative to UGCAUGU.

For the molecule B25, the binding signal is 0.0145 KA relative to UGCAUGU.

Take B26: the binding signal is 0.000219 KA relative to UGCAUGU.

For B27, the binding signal is 0.00159 KA relative to UGCAUGU.

For the molecule B28, the binding signal is 0.00161 KA relative to UGCAUGU.

As for B29, the binding signal is 0.00518 KA relative to UGCAUGU.

With B30, the binding signal is 0.00578 KA relative to UGCAUGU.

Consider B31, for which the binding signal is 0.0134 KA relative to UGCAUGU.
